The supplement of paper PMC3334620
The full ranking holds about 33,000 sequences; the median of “E-score (-0.5 to 0.5)” is about -0.035, and the highest 2% start at about 0.35. Some of the results follow.

target: T1, Pdr3 (UniProt P33200); assay: PBM E-score (8-mer binding enrichment) (E-score (-0.5 to 0.5)); higher = stronger / more preferred TF binding; most listed sequences are background and not binding sites; details: protein concentration: 200 nM; construct: GST-full length
T1 sequence: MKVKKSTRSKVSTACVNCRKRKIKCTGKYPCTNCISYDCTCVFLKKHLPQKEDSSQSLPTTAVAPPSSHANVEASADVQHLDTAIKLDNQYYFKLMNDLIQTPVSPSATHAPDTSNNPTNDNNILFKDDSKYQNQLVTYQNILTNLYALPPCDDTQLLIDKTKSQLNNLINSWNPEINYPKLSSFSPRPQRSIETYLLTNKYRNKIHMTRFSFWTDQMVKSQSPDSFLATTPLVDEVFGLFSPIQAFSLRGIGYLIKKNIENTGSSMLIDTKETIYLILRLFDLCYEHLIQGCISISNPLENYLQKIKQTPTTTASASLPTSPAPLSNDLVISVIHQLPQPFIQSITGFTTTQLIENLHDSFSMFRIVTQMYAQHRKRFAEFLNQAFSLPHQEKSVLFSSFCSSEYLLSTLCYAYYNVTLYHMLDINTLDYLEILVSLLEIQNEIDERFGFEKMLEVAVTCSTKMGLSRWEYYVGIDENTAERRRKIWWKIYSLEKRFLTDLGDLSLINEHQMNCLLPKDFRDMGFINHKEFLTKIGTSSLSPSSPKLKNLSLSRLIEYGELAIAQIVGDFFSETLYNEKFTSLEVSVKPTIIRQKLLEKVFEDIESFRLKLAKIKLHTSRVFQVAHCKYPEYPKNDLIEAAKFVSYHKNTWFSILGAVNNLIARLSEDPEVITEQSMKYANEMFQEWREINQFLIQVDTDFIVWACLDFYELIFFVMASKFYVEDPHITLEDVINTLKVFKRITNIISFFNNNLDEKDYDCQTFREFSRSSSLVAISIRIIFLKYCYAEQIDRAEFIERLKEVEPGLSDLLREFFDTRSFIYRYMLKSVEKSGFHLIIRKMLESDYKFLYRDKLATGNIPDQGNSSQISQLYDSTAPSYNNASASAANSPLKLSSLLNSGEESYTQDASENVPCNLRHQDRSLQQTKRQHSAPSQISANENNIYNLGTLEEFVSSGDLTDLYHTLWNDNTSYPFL
How it was run: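 E-scores (a modified Wilcoxon-Mann-Whitney statistic) were assigned by the Universal PBM Analysis Suite to every ungapped eight-base word pooled with its reverse complement. The input came from universal all-10-mer Agilent arrays made double-stranded by primer extension and probed with GST-tagged yeast transcription factors at about 100-200 nM. Fluorescent anti-GST detected bound protein, and masliner normalised the scans.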

Sequence | PBM E-score
GGAGTGCC | 0.229
GCCCGACA | 0.181
ACGATGAC | -0.126
CGCGTCCG | 0.272
AACCGATG | 0.0088
ATCTTCCC | 0.268
CCAAGATC | -0.0726
GTCAATCA | -0.144
AAATGTCT | -0.155
AATGAGCC | -0.0929
ATATACCA | -0.119
ATTAATGG | 0.0723
GCTGAGTA | -0.107
ACTCGTAC | -0.217
GGCTAACA | -0.132
ATACCGAC | -0.152
CCAACTGG | -0.00749
ATTAACTA | -0.199
AAATATAC | 0.0626
CGACCAAA | 0.164
CGTATGGA | -0.0276
AACTAGTT | 0.0669
GTTCTCCA | -0.0906
TAGGTGGA | -0.268
CCATATAG | -0.131

Sequence | PBM E-score
GGATCATA | 0.0938
ATCGAATG | -0.0988
CTATGTAA | -0.139
CGATCCAA | -0.115
AGCACTAT | -0.102
CACACTTA | -0.0169
GAGGAGTA | -0.0674
GCAACGTA | -0.192
AGTGGCTG | 0.118
AGGCCTGA | -0.0734
AGTCTATC | -0.172
CCCTTAAG | -0.0669
GGTGAACC | -0.0447
CTCGTGGC | 0.00874
CCCCGATA | 0.112
AACGGCCT | -0.015
CCTAAGTA | -0.0438
AGTTAGAA | 0.137
CCGGTGTA | 0.153
CTAAAAGA | -0.283
AATAACGC | -0.207
TATATTGA | 0.131
ACAACATC | -0.0263
ATCCGATC | 0.275
GCTTATCA | -0.0726

Sequence | PBM E-score
GATACGAC | -0.11
GGCTTCCC | -0.0254
AGGTCGAT | 0.17
ACGTTCAT | -0.371
AAGAATCT | -0.0912
GACACCCA | -0.139
GGGCCAGA | -0.0964
ACTCTTAG | -0.224
GATCTCCA | 0.0339
ATCCGCCA | 0.185
GATATCGA | -0.0357
GAACCAAC | 0.0294
CGCCGTTA | 0.0777
GGTTCCCA | -0.0344
GGAATGAC | 0.225
GTCACGAC | -0.118
ATAACCAC | -0.0238
CCCAACAG | -0.274
AAATCAGT | 0.0365
ATTGGAGC | 0.0566
CAAACGCC | 0.135
CAGACGAC | -0.111
ACGTTAGA | -0.117
AAGTCACA | -0.176
GTGCCTTA | -0.179

Sequence | PBM E-score
AGTACCTC | -0.175
GTTTAACA | -0.238
GAACAGGA | -0.00932
ATGTCTAA | -0.15
AGTGATAC | -0.144
CCTCCACA | -0.167
CAAGTTGC | 0.0412
CAGCGCCC | -0.0855
CTAATTGC | 0.0796
GTCGGCAA | 0.0307
CCTGTTGC | 0.0205
GGGTCTCA | -0.00302
GGGATAAC | 0.179
AATAGGCT | -0.0988
AAGACCCG | 0.107
CAAATGCC | -0.0704
CCGAGCGA | 0.253
GAACTCCC | 0.132
GGGCCTCA | 0.032
GGAGCTTA | -0.0551
ACTTTATC | -0.0416
AGCTGCAA | -0.0617
ACCGACTA | -0.102
CGATTTGA | -0.0826
GACCCCGA | 0.109

Sequence | PBM E-score
GGGTGGAC | 0.168
ACTCCTCC | 0.0576
TCGAAAAA | 0.027
AGGCATGA | -0.223
AAACCGTC | 0.135
ACGTAAAC | -0.198
TACTTCGA | 0.104
AATGCTAT | -0.0693
GGGCTAGA | -0.105
GGTTCCAA | 0.273
ACAACTAG | 0.0926
AACAGCGC | -0.0939
AAGCCTCA | -0.045
TCTCCTAA | -0.167
GCACGGTA | -0.063
CTGACTCC | -0.147
CTCTTAAC | -0.0652
ACGAGAAC | -0.0935
ACATTTAA | 0.0567
ATGTACGC | -0.207
GCCCGCAC | 0.164
ACGATATG | 0.12
TACTATAA | 0.0062
CAGCAACC | -0.074
AACGATGA | -0.0263

Sequence | PBM E-score
GTTTACGA | -0.17
ACCCATAT | -0.00112
ACTCGGAG | 0.201
CCGCTCCG | 0.378
CAGGCGCG | 0.0315
CGAGAGCG | 0.0432
TATCAAGA | -0.113
AACGCTTG | -0.17
ACCTGATC | -0.152
TGTATAAA | -0.0964
AAACCCTC | -0.0885
ACAGAACC | -0.208
CCTCCGAA | 0.152
GAACAGGC | 0.0536
AATAGCGA | -0.0102
AAACCACT | -0.088
GCCCGGAC | 0.282
CTGATTGA | -0.125
ACTCGCTA | 0.0214
AATACCTG | -0.0442
AATAGGTC | -0.0646
ACCGATTA | 0.223
ATTCCCAC | -0.0385
AATGAGGC | -0.0677
GCAATCAC | -0.00582

Sequence | PBM E-score
TAGGCAAA | -0.226
AAAGGCGG | 0.0756
GCACTTCC | -0.0637
ACCCACCT | -0.21
AGTCGAAT | 0.0199
AACCGTTC | 0.258
AGGTGGGC | -0.0925
CCTGTCAC | -0.11
TATAACAA | 0.0804
ATTTCGTC | 0.0296
CCCGAGGG | 0.211
GTGAAGTA | -0.0346
AATGAGAA | -0.165
CCTGTACC | -0.224
CCGACAAC | 0.044
CGTCACAG | 0.0195
ACGCACAC | 0.05
AGTGTGAT | -0.0147
ATAAGCGA | 0.0101
ATTGCACA | 0.00491
CGCACGAC | -0.115
CGGGGAGC | 0.212
